Test results taken from PMC7994203.
No constants are given. Whether binding was seen depends on the method and setting.

Sequences of proteins named here, by UniProt entry; tags and fusion partners are left off.
UniProt Q96B97: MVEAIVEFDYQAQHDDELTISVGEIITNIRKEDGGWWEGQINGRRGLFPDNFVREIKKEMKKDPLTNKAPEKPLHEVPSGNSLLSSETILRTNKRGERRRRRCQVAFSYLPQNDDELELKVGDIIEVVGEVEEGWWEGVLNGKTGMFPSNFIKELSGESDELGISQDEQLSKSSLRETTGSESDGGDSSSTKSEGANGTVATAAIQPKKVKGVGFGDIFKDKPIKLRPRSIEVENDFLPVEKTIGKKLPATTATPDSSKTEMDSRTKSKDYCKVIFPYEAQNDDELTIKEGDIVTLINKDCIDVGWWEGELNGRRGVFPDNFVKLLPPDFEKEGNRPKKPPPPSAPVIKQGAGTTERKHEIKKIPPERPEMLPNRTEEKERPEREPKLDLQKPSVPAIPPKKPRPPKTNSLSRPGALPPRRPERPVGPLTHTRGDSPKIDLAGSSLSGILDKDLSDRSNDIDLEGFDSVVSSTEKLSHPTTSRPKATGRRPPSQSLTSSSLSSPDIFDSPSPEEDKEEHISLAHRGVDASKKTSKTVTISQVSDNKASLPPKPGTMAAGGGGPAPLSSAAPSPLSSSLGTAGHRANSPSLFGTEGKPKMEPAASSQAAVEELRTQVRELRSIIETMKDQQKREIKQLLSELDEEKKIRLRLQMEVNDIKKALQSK

Target: GST-CIN85 full-length (UniProt Q96B97)
Experiment: SPR; proteins immobilized via an N-terminal GST-tag, peptides as analyte; Biacore T200, steady-state affinity; both purified

- binding: no binding
Binder: IDSCTYEAMYN [PepC2]
